Laboratory results published in the supplement of paper PMC10185492.
This is one part of the list. Read counts after selection give these values, which scatter widely.

system: SARS-CoV-2 3CLpro (nsp5); assay: substrate phage enrichment score (protease-eluted vs HEPES control, +1 offset) (ratio); higher = better cleaved substrate; conditions: selection round: 4; protease elution time: 15 min
Experimental: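 Random heptapeptide substrate phage display (M13 pIII fusion, heptapeptide between an N-terminal biotinylated AviTag GLNDIFEAQKIEWHE and pIII; phages immobilised on streptavidin) eluted by cleavage with 50 nM protease in 20 mM HEPES at 37 °C. Selected phages were NGS sequenced, and the enrichment score is (reads in protease sample + 1)/(reads in HEPES blank-selection control + 1).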

| Substance | substrate phage enrichment score |
| --- | --- |
| AQGACIH | > 25 |
| PEHCQLD | 11.5 |
| LTGSSCP | 3.17 |
| RHPQCQP | > 27 |
| SQTPQES | 0.0714 |
| RAGCKAA | 15.7 |
| AARTQNW | 5.38 |
| TCRTTLQ | 190 |
| YDRPKDW | > 29 |
| CLIRDLR | 1.52 |
| VVPSVTS | 10.5 |
| ERFGSNP | 11.5 |
| QTIKLQA | > 120 |
| QRGQMSE | 11.7 |
| IFRCVCR | > 36 |
| WTDYRLS | 2.46 |
| ETAGPEA | 17 |
| RSKQAPY | 1.55 |
| ASGTMQP | > 25 |
| DSSGAMG | 2.09 |
| NRCKCPV | 0.227 |
| QRSTLQS | > 35 |
| CKESSNW | 5.5 |

| Substance | substrate phage enrichment score |
| --- | --- |
| AGHCKKN | 1.2 |
| HGTRNRG | > 21 |
| SASLPRQ | 35.5 |
| PAHHHGA | 1.42 |
| CPAAHHH | 0.997 |
| AAAHHQH | 1.18 |
| VHRGPPE | > 29 |
| HGEVPAG | 2 |
| SCSSAPR | > 40 |
| QQQSLIS | 0.682 |
| QTSCNVC | 3.23 |
| YRESSCN | > 21 |
| SNPNRDA | > 26 |
| TDLNALF | 5.44 |
| LPQRENI | 0.087 |
| NHPTGRQ | 0.565 |
| PEVWTES | 0.471 |
| AAGRYTG | 2.29 |
| SSAVKSP | > 30 |
| TRSNLTG | > 105 |
| NSWCSGP | 7.5 |
| EGAAHHH | 4 |
| AQCLFQE | 0.778 |

| Substance | substrate phage enrichment score |
| --- | --- |
| PKGCTVG | > 30 |
| RRESHKS | > 146 |
| GIPPYAQ | 2.04 |
| KGTLKPL | > 22 |
| FQHGYQG | 2.4 |
| REPKCTR | 0.533 |
| TTEFAEP | 1.25 |
| DQALKFW | > 45 |
| CTAAHHH | 0.869 |
| LGAQKAA | 1 |
| DEVEQFP | 4.8 |
| TPSSKLQ | > 54 |
| QLYCNPE | 6.33 |
| RRWATLQ | > 40 |
| FLGPRLQ | > 21 |
| QPQDAAS | 3.6 |
| TGAGSIP | > 24 |
| NSNEPYV | > 28 |
| NYKGQGP | > 23 |
| YLNSKTP | > 54 |
| LGSATLQ | > 23 |
| NDGSVGH | 1.04 |
| ANTIKAR | 1.85 |

| Substance | substrate phage enrichment score |
| --- | --- |
| GDHNKAQ | 0.966 |
| GALRCRD | 0.692 |
| SSAREGC | 1.12 |
| DFFDAGN | 0.231 |
| THPVASD | > 69 |
| PPENTWC | > 29 |
| EPTQCRA | 1.36 |
| DPSKAWR | 2.43 |
| TTNLLKS | 0.818 |
| KCTQSGL | > 28 |
| NRDGVPG | 7.25 |
| HPVSKVQ | 1.82 |
| GKAAHHH | 0.957 |
| TRGEPQR | > 44 |
| VNFQGGS | 2.4 |
| QRLRWPN | 18.5 |
| SKLKSQG | 9.2 |
| GANHSPS | > 21 |
| QQTLRTQ | 0.917 |
| KDWRYSG | 0.258 |
| IPRGSRT | > 22 |
| RATLQSR | > 30 |
| CVGLTYS | > 22 |

| Substance | substrate phage enrichment score |
| --- | --- |
| HQTSDHH | 1.41 |
| PVQCHLQ | 24.7 |
| QSFTHCR | 2.52 |
| NEQLRCP | 5.38 |
| IYGPLGS | > 39 |
| PAGSNHV | 7 |
| HYIHHHH | 12 |
| PGAGVGR | > 24 |
| PCYAGCT | > 30 |
| SRISSWQ | > 21 |
| DSKQKAN | 10.8 |
| ASGQSMM | 17.3 |
| HPYFQGG | 0.571 |
| LPKLQST | 46 |
| TSHKTLC | > 34 |
| LPAAHHH | 0.635 |
| AVGEYIN | 1.12 |
| GPWVSSP | 13 |
| EQVSQLQ | > 52 |
| QCEFNLQ | 1.5 |
| YRTRLQS | > 125 |
| HQHTAHP | 0.714 |
| MHFQGGS | 0.75 |

| Substance | substrate phage enrichment score |
| --- | --- |
| TRSDGET | 2 |
| SWCTVPK | 37.5 |
| RRPHVHT | 2 |
| HHVNSVD | 6.82 |
| QPAKPSG | 1.75 |
| SPGFQNR | > 48 |
| QATVFCH | 2.42 |
| AAENMIN | > 37 |
| RSTQQAA | 5.3 |
| HAKAHKS | 1.22 |
| HLRTAPD | 4.5 |
| YSRCLLQ | > 93 |
| ENKTLLQ | > 25 |
| LENNLPR | > 29 |
| GTHGDNA | > 41 |
| SDPVWMA | 19.5 |
| VWAGAPW | 3.33 |
| EAAVILQ | > 41 |
| YPAAHHH | 0.809 |
| CSEYKRY | > 113 |
| QPVIERQ | 30 |
| TSRGRLQ | > 25 |
| YGLNYYR | 4.3 |

| Substance | substrate phage enrichment score |
| --- | --- |
| PGEYVQP | 0.619 |
| HESYARF | 14.6 |
| ALRTQLQ | 154 |
| PCWVWRS | > 38 |
| STSHGGR | 6 |
| SRLQAAC | 35.5 |
| PKANLWD | > 28 |
| RVINDGV | > 33 |
| KRTIMPC | 2.29 |
| SQPSPNL | 11.5 |
| YSSHQTQ | 7.7 |
| RDGTSLQ | > 88 |
| CAAAQHN | 0.938 |
| TDWSPTH | > 33 |
| SGPYCLE | > 30 |
| DDRRPAL | > 28 |
| NSYLNMP | 1.54 |
| SAPPGSG | > 29 |
| WTQENST | > 60 |
| TDFQGGS | 0.395 |
| AINSQEG | 0.714 |
| SRINLRA | 3.64 |
| ASHACMQ | > 24 |

| Substance | substrate phage enrichment score |
| --- | --- |
| EEETITR | 5.69 |
| KASGTAA | 30.8 |
| WPSEAIV | > 49 |
| SNEPTSQ | 1.85 |
| PLDKSKS | > 23 |
| TGDLKNA | > 32 |
| MWSTDEK | 3.5 |
| SVRDLRC | 11 |
| PDHNLTH | 0.811 |
| SVDSATP | > 21 |
| LTETSVW | 6.33 |
| TYYKNSQ | 1.6 |
| STQPVRP | > 23 |
| NNHHHGA | 0.08 |
| EALHGDR | 0.917 |
| EVYLNEN | > 202 |
| CRESAGV | 0.875 |
| CEPNVPN | 8 |
| ESLWGTF | 3.4 |
| KGVGNLP | 0.1 |
| LSGQHPC | 5.4 |
| ANFQGGS | 5.89 |
| NSTWTSQ | > 23 |
